Laboratory results from the supplement of paper PMC4967469.

Columns and labels:
Experiment in all cases: Viability of human cancer cell lines after 72 h of drug (GDSC screen)
QL-XI-92 = compound: C=CC(=O)Nc1cc(NC(=O)c2ccc(C)c(NC(=O)c3ccno3)c2)cc(C(F)(F)F)c1 [QL-XI-92]; conditions: top dose 10.24 µM; top dose inferred
Procedure: (§1)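 Human cancer cell lines in 384-well plates, medium with 10% serum, drug for 72 h over a 256-fold dose range (nine 2-fold or five 4-fold steps up to the top dose). Adherent lines were fixed and stained with the nucleic acid dye Syto60, suspension lines read with resazurin; signal relative to control wells, capped at 0 and 100%. One two-parameter sigmoid per drug and line, fitted in a mixed model over all curves with the slope shared within a line.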

Vinorelbine = compound: CCC1=C[C@@H]2CN(C1)Cc1c([nH]c3ccccc13)[C@@](C(=O)OC)(c1cc3c(cc1OC)N(C)[C@H]1[C@@](O)(C(=O)OC)[C@H](OC(C)=O)[C@]4(CC)C=CCN5CC[C@]31[C@@H]54)C2 [Vinorelbine]; conditions: top dose 0.064 µM; top dose inferred
Procedure: as §1

AG-014699 = compound: CNCc1ccc(-c2[nH]c3cc(F)cc4c3c2CCNC4=O)cc1 [AG-014699]; conditions: top dose 5 µM; top dose inferred
Procedure: as §1

XL-184 = compound: COc1cc2nccc(Oc3ccc(NC(=O)C4(C(=O)Nc5ccc(F)cc5)CC4)cc3)c2cc1OC [XL-184]; conditions: top dose 5.12 µM; top dose inferred
Procedure: as §1

WHI-P97 = compound: COc1cc2ncnc(Nc3cc(Br)c(O)c(Br)c3)c2cc1OC [WHI-P97]; conditions: top dose 10.24 µM; top dose inferred
Procedure: as §1

Gefitinib = compound: COc1cc2ncnc(Nc3ccc(F)c(Cl)c3)c2cc1OCCCN1CCOCC1 [Gefitinib]; conditions: top dose 0.5 µM
Procedure: as §1

Phenformin = compound: N=C(N)NC(=N)NCCc1ccccc1 [Phenformin]; conditions: top dose 4000 µM; top dose inferred
Procedure: as §1

EHT 1864 = compound: O=c1cc(CN2CCOCC2)occ1OCCCCCSc1ccnc2cc(C(F)(F)F)ccc12 [EHT 1864]; conditions: top dose 10 µM; top dose inferred
Procedure: as §1

FMK = compound: Cc1ccc(-c2c(C(=O)CF)n(CCCO)c3ncnc(N)c23)cc1 [FMK]; conditions: top dose inferred
Procedure: as §1

Row | Cell Line | AUC (FMK) | IC50 (FMK) [µM] | also measured
1 | A2058 (melanoma, adherent) | – | – | AUC (QL-XI-92): 0.93; IC50 (QL-XI-92): > 10.2 µM; AUC (Vinorelbine): 0.491; IC50 (Vinorelbine): 0.00379 µM; AUC (AG-014699): 0.934; IC50 (AG-014699): > 5 µM; AUC (XL-184): 0.989; IC50 (XL-184): > 5.12 µM; AUC (WHI-P97): 0.99; IC50 (WHI-P97): > 10.2 µM; AUC (Gefitinib): 0.963; IC50 (Gefitinib): > 0.5 µM; AUC (Phenformin): 0.835; IC50 (Phenformin): 2230 µM; AUC (EHT 1864): 0.961; IC50 (EHT 1864): > 10 µM
2 | G-MEL (melanoma, adherent) | – | – | AUC (QL-XI-92): 0.876; IC50 (QL-XI-92): 10 µM; AUC (Vinorelbine): 0.857; IC50 (Vinorelbine): 0.0509 µM; AUC (XL-184): 0.96; IC50 (XL-184): > 5.12 µM; AUC (WHI-P97): 0.962; IC50 (WHI-P97): > 10.2 µM; AUC (Gefitinib): 0.961; IC50 (Gefitinib): > 0.5 µM; AUC (Phenformin): 0.66; IC50 (Phenformin): 692 µM; AUC (EHT 1864): 0.936; IC50 (EHT 1864): > 10 µM
3 | MKN45 (stomach, adherent) | – | – | AUC (QL-XI-92): 0.978; IC50 (QL-XI-92): > 10.2 µM; AUC (Vinorelbine): 0.416; IC50 (Vinorelbine): 0.00221 µM; AUC (AG-014699): 0.953; IC50 (AG-014699): > 5 µM; AUC (WHI-P97): 0.981; IC50 (WHI-P97): > 10.2 µM; AUC (Gefitinib): 0.979; IC50 (Gefitinib): > 0.5 µM; AUC (Phenformin): 0.877; IC50 (Phenformin): > 4000 µM; AUC (EHT 1864): 0.956; IC50 (EHT 1864): > 10 µM
4 | RMG-I (ovary, adherent) | – | – | AUC (QL-XI-92): 0.945; IC50 (QL-XI-92): > 10.2 µM; AUC (Vinorelbine): 0.869; IC50 (Vinorelbine): > 0.064 µM; AUC (XL-184): 0.913; IC50 (XL-184): > 5.12 µM; AUC (WHI-P97): 0.853; IC50 (WHI-P97): 10.2 µM; AUC (Gefitinib): 0.954; IC50 (Gefitinib): > 0.5 µM; AUC (Phenformin): 0.722; IC50 (Phenformin): 1200 µM
5 | SK-MEL-24 (melanoma, adherent) | – | – | AUC (QL-XI-92): 0.983; IC50 (QL-XI-92): > 10.2 µM; AUC (Vinorelbine): 0.978; IC50 (Vinorelbine): > 0.064 µM; AUC (AG-014699): 0.983; IC50 (AG-014699): > 5 µM; AUC (WHI-P97): 0.927; IC50 (WHI-P97): > 10.2 µM; AUC (Gefitinib): 0.963; IC50 (Gefitinib): > 0.5 µM; AUC (Phenformin): 0.727; IC50 (Phenformin): 1290 µM; AUC (EHT 1864): 0.929; IC50 (EHT 1864): > 10 µM
6 | Saos-2 (osteosarcoma, adherent, top dose 20 µM) | 0.981 | > 20 | –
7 | SiHa (cervix, adherent, top dose 20 µM) | 0.987 | > 20 | –
8 | T47D (breast, adherent, top dose 20 µM) | 0.95 | > 20 | –
9 | T84 (large intestine, adherent, top dose 20 µM) | 0.984 | > 20 | –
10 | T98G (glioma, adherent, top dose 20 µM) | 0.984 | > 20 | –
11 | T-T (oesophagus, adherent, top dose 20 µM) | 0.986 | > 20 | –
12 | TALL-1 (T-cell lymphoblastic leukaemia, suspension, top dose 20 µM) | 0.988 | > 20 | –
13 | TC-71 (Ewing sarcoma, adherent, top dose 20 µM) | 0.988 | > 20 | –
14 | TE-1 (oesophagus, adherent, top dose 20 µM) | 0.981 | > 20 | –
15 | TE-5 (oesophagus, adherent, top dose 20 µM) | 0.976 | > 20 | –
16 | TE-6 (oesophagus, adherent, top dose 20 µM) | 0.986 | > 20 | –
17 | TE-8 (oesophagus, adherent, top dose 20 µM) | 0.984 | > 20 | –
18 | TE-9 (oesophagus, adherent, top dose 20 µM) | 0.982 | > 20 | –
19 | TE-10 (oesophagus, adherent, top dose 20 µM) | 0.983 | > 20 | –
20 | TE-11 (oesophagus, adherent, top dose 20 µM) | 0.987 | > 20 | –
21 | TE-12 (oesophagus, suspension, top dose 20 µM) | 0.982 | > 20 | –
22 | TE-15 (oesophagus, suspension, top dose 20 µM) | 0.899 | > 20 | –
23 | TGBC1TKB (biliary tract, adherent, top dose 20 µM) | 0.987 | > 20 | –

Row | Cell Line | AUC (FMK) | IC50 (FMK) [µM] | also measured
24 | TGBC24TKB (biliary tract, adherent, top dose 20 µM) | 0.983 | > 20 | –
25 | TGW (neuroblastoma, adherent, top dose 20 µM) | 0.99 | > 20 | –
26 | THP-1 (acute myeloid leukaemia, suspension, top dose 20 µM) | 0.98 | > 20 | –
27 | TK10 (kidney, adherent, top dose 20 µM) | 0.958 | > 20 | –
28 | TK (B-cell lymphoma, suspension, top dose 20 µM) | 0.985 | > 20 | –
29 | TOV-21G (ovary, adherent, top dose 20 µM) | 0.985 | > 20 | –
30 | TOV-112D (ovary, adherent, top dose 20 µM) | 0.967 | > 20 | –
31 | TT2609-C02 (thyroid, adherent, top dose 20 µM) | 0.973 | > 20 | –
32 | TT (thyroid, adherent, top dose 20 µM) | 0.983 | > 20 | –
33 | TUR (B-cell lymphoma, suspension, top dose 20 µM) | 0.987 | > 20 | –
34 | TYK-nu (ovary, adherent, top dose 20 µM) | 0.981 | > 20 | –
35 | U031 (kidney, adherent, top dose 20 µM) | 0.942 | > 20 | –
36 | U251 (glioma, adherent, top dose 20 µM) | 0.985 | > 20 | –
37 | U-2-OS (osteosarcoma, adherent, top dose 20 µM) | 0.967 | > 20 | –
38 | U-87-MG (glioma, adherent, top dose 20 µM) | 0.981 | > 20 | –
39 | U-118-MG (glioma, adherent, top dose 20 µM) | 0.986 | > 20 | –
40 | U-698-M (B-cell leukaemia, suspension, top dose 20 µM) | 0.984 | > 20 | –
41 | UACC-62 (melanoma, adherent, top dose 20 µM) | 0.988 | > 20 | –
42 | UACC-257 (melanoma, adherent, top dose 20 µM) | 0.941 | > 20 | –
43 | UACC-812 (breast, adherent, top dose 20 µM) | 0.99 | > 20 | –
44 | UACC-893 (breast, adherent, top dose 20 µM) | 0.975 | > 20 | –
45 | UM-UC-3 (bladder, adherent, top dose 20 µM) | 0.978 | > 20 | –
46 | UMC-11 (lung carcinoid, adherent, top dose 20 µM) | 0.986 | > 20 | –

Row | Cell Line | AUC (FMK) | IC50 (FMK) [µM] | also measured
47 | VA-ES-BJ (soft tissue, adherent, top dose 20 µM) | 0.985 | > 20 | –
48 | VAL (B-cell lymphoma, suspension, top dose 20 µM) | 0.973 | > 20 | –
49 | VM-CUB-1 (bladder, adherent, top dose 10.24 µM) | 0.988 | > 10.2 | –
50 | VMRC-RCW (kidney, adherent) | – | – | AUC (QL-XI-92): 0.965; IC50 (QL-XI-92): > 10.2 µM; AUC (Vinorelbine): 0.885; IC50 (Vinorelbine): 0.0613 µM; AUC (XL-184): 0.919; IC50 (XL-184): > 5.12 µM; AUC (WHI-P97): 0.976; IC50 (WHI-P97): > 10.2 µM; AUC (Gefitinib): 0.981; IC50 (Gefitinib): > 0.5 µM; AUC (Phenformin): 0.894; IC50 (Phenformin): > 4000 µM
51 | VMRC-RCW (kidney, adherent, top dose 20 µM) | 0.986 | > 20 | –
52 | VMRC-RCZ (kidney, adherent, top dose 20 µM) | 0.977 | > 20 | –
53 | WIL2-NS (lymphoid neoplasm, suspension, top dose 20 µM) | 0.992 | > 20 | –
54 | WM35 (melanoma, adherent, top dose 20 µM) | 0.969 | > 20 | –
55 | WM278 (melanoma, adherent, top dose 20 µM) | 0.961 | > 20 | –
56 | WM793B (melanoma, adherent, top dose 20 µM) | 0.893 | > 20 | –
57 | WM1552C (melanoma, adherent, top dose 20 µM) | 0.925 | > 20 | –
58 | WM-115 (melanoma, adherent, top dose 20 µM) | 0.976 | > 20 | –
59 | WSU-DLCL2 (B-cell lymphoma, suspension, top dose 20 µM) | 0.993 | > 20 | –
60 | WSU-NHL (lymphoid neoplasm, suspension, top dose 20 µM) | 0.979 | > 20 | –
61 | YAPC (pancreas, adherent, top dose 20 µM) | 0.965 | > 20 | –
62 | YH-13 (glioma, adherent, top dose 10.24 µM) | 0.98 | > 10.2 | –
63 | YKG-1 (glioma, adherent, top dose 20 µM) | 0.984 | > 20 | –
64 | YMB-1-E (breast, adherent, top dose 20 µM) | 0.981 | > 20 | –
65 | YT (lymphoid neoplasm, suspension, top dose 20 µM) | 0.895 | 17.8 | –
66 | huH-1 (liver, adherent, top dose 20 µM) | 0.984 | > 20 | –
67 | no-10 (glioma, adherent, top dose 20 µM) | 0.973 | > 20 | –
68 | no-11 (glioma, adherent, top dose 20 µM) | 0.983 | > 20 | –

A lower IC50 marks a more sensitive line; a limit (>, <) means that the fit lies beyond the doses tested. AUC is the area under the same curve over the 256-fold range up to the top dose, as a fraction; values near 1 show little effect. For some assays here: An inferred top dose comes from the curve model; the source does not state it.
